Survival data for 89 molecules are collected here from PubChem BioAssay AID463173 (ICCB-Longwood Screening Facility, Harvard Medical School, 2010).

Out of some 52,000 compounds screened, about 1,700 (3.3%) were called active. Cut-off read from the data, not from the text of the source: active = survival mostly below about 52% (no sharp cut-off); inactive = mostly above about 56%. The list shows a part of the results.

The assay concerns Wild type. The assay can be described thus: growth inhibition of S. aureus wild type versus tarO mutant, primary screen, teichoic acid synthesis inhibitors, RN4220, OD600 (AID 463173). Particulars: S. aureus RN4220 wild type/DeltatarO growth, OD600, 18 h, stronger effect = lower value, screened at 18.75 µg/mL (by protocol).
Turning to `Cc1ccc(C)c(NC(=O)CSc2nc(-c3ccccc3Cl)nc3c2Cc2c(CO)cnc(C)c2O3)c1`, the survival was inactive: 109%.

With `CCCCOc1ccc(C(=O)NCCc2csc(-c3ccc(OC)cc3)n2)cc1`, the survival is inactive: 120%.

With `CN(C)c1ccc(CNC(=O)c2cccn2-c2nnc(N3CCCCC3)s2)cc1`, the survival was inactive: 65%.

Take `O=C(NCc1ccc(F)cc1)C(=O)NCC(c1cccs1)S(=O)(=O)c1cccs1` (centres undefined): the survival is inactive: 71%.

With `CC(C)N(C(=O)Cn1nnc2ccccc21)C(C(=O)NCc1ccco1)c1ccccc1` (centres undefined), the survival is inactive: 101%.

For `COc1ccccc1CNC(=O)c1ccc2c(c1)N(Cc1ccc(C)cc1)CCS2`, the survival was inactive: 84%.

Regarding `COc1ccc(CSCCN)cc1Cl`, the survival was inactive: 110%.

As to `O=S1(=O)CCC(NS(=O)(=O)c2ccccc2)C1` (centres undefined), the survival is inactive: 106%.

With `CCN(CC)S(=O)(=O)c1ccc2c(c1)N(CC(=O)NCC(C)c1ccccc1)C(=O)CO2` (centres undefined), the survival is inactive: 91%.

Turning to `CCc1ccccc1NC(=O)CN1C(=O)COc2ccc(S(=O)(=O)N3CCCCCC3)cc21`, the survival is inactive: 101%.

As for `Cc1ccc(-n2ncc3c(N4CCCCCC4)ncnc32)cc1C`, the survival is inactive: 68%.

In the case of `CCn1cc(C(=O)N2CCN(c3ccccc3OC)CC2)c(=O)c2cc(S(=O)(=O)N3CCC(C)CC3)ccc21`, the survival was inactive: 86%.

As for `CC(C)Oc1ccc(CNC(=O)c2ccccc2NC(=O)c2nsc3ccccc23)cc1`, the survival was inactive: 124%.

Regarding `CNS(=O)(=O)c1cn(CC(=O)N2CCN(c3cccc(Cl)c3)CC2)cc1S(=O)(=O)NC`, the survival was inactive: 73%.

For `O=C(CCCCn1c(=O)c2ccccc2n(Cc2ccccc2F)c1=O)NCc1ccccc1Cl`, the survival was inactive: 101%.

On to `CCN(CC)C(=O)C1=CC(c2ccc3c(c2)OCO3)=NS(=O)(=O)N1C`, for which the survival was inactive: 85%.

Consider `Cc1ccc(NC(=O)CSc2nc3ccc(NC(=O)CCc4ccccc4)cc3s2)c(C)c1`, for which the survival was inactive: 85%.

On to `c1ccc(Oc2ccc(N=NN3CCCCC3)cc2)cc1`, for which the survival was inactive: 97%.

`CCC(Oc1ccccc1)C(=O)Nc1ccc(OCc2cc(=O)n3ccc(C)cc3n2)cc1` (centres undefined): the survival is inactive: 63%.

With `Cc1oc(-c2ccccc2F)nc1CSCC(=O)NCCc1ccccc1`, the survival is inactive: 89%.

In the case of `COC(=O)c1ccc(CN(Cc2ccc(OC)c(OC)c2)S(=O)(=O)c2cc(C(=O)Nc3cccc(C)c3)ccc2F)cc1`, the survival was inactive: 75%.

In the case of `O=S(=O)(NCCc1nnc2ccc(SCc3c(F)cccc3Cl)nn12)c1ccccc1`, the survival was inactive: 78%.

As to `COc1ccc(N2C(=O)CS(=O)(=O)C23C(=O)N(Cc2c(F)cccc2Cl)c2ccccc23)cc1` (centres undefined), the survival is inactive: 88%.

For `CCC(=O)N(C)c1nnc(-c2cccc(C)c2)s1`, the survival was inactive: 122%.

In the case of `CC(C)CCNC(=O)c1cc(Sc2ccc(F)cc2F)nc2ccccc12`, the survival was inactive: 75%.

Consider `CCCCn1cc(S(=O)(=O)c2ccccc2)c(=O)c2cc(F)c(N3CCC(C)CC3)cc21`, for which the survival was inactive: 86%.

In the case of `CCOC(=O)c1cnc2c(C)cc(C)cc2c1Nc1ccc(OCc2ccccc2)cc1`, the survival was active: 11%.

For the molecule `COc1ccc(NC(=O)C2=C(C)Nc3ncnn3C2c2ccccn2)cc1` (centres undefined), the survival is inactive: 55%.

`CCOC(=O)C1=C(C(F)(F)F)Nc2ncnn2C1c1cccc(OC)c1OC` (centres undefined): the survival is inactive: 99%.

Consider `NC(=O)CSc1n[nH]c(-c2ccco2)n1`, for which the survival was inactive: 103%.

For the molecule `O=C(CN1CCN(CC(=O)Nc2ccccc2F)CC1)Nc1ccc(Cl)c(C(F)(F)F)c1`, the survival was inactive: 89%.

For `COc1cccc(C(=O)Nc2ccc3c(c2)COC3=O)c1`, the survival is inactive: 102%.

For the molecule `CCOc1ccc(CNC(=O)CCc2cn(CC)c3ccccc23)cc1`, the survival was inactive: 85%.

As for `CC1=C(c2ccc(C)c(C)c2)S(=O)(=O)N=C1N1CCC(C(=O)N2CCCCC2)CC1`, the survival is inactive: 129%.

Turning to `COc1cc(C(=O)Nc2ccc(OCc3cc(=O)n4cccc(C)c4n3)cc2)cc(OC)c1OC`, the survival was inactive: 133%.

Take `O=C(NCCc1ccccc1)c1ccc(CSc2nc3ccncc3n2Cc2cccc(F)c2)cc1`: the survival was inactive: 133%.

Turning to `CCNc1nc(N2CCCC2)nc(N2CCCC2)n1`, the survival is inactive: 111%.

As for `CCc1ccc(NC(=O)C2CCN(S(=O)(=O)c3c(C)noc3/C=C\c3ccc(OC)cc3)CC2)cc1`, the survival is inactive: 84%.

`CCN(CC)C(=O)c1sc2c(c1C)c(=O)n(CCc1ccccc1)c(=O)n2Cc1cccc(Cl)c1`: the survival is inactive: 74%.

For `CCCCOc1ccc(CN2C(=O)C(=O)c3cc(C)ccc32)cc1OC`, the survival is inactive: 87%.

Regarding `COc1ccccc1CNc1ccc(-c2nc(-c3cccc(C)c3)no2)cc1[N+](=O)[O-]`, the survival is inactive: 100%.

In the case of `O=C(NC1CCCC1)C1CCCN1C(=O)Nc1ccccc1` (centres undefined), the survival is inactive: 105%.

Turning to `CN(C)c1ccc(CNC(=O)c2ccc3c(c2)N(C)C(=O)C2CCCCN32)cc1` (centres undefined), the survival is inactive: 121%.

In the case of `O=C(c1cnc(N2CCOCC2)c2ccccc12)N1CCN(c2ccccc2F)CC1`, the survival is inactive: 74%.

On to `CCOc1ccccc1N1CC(c2nc3ccccc3n2CCCCOc2cc(C)ccc2C)CC1=O` (centres undefined), for which the survival was inactive: 43%.

For the molecule `COc1ccc(-n2nc(C(=O)NCc3ccc(F)cc3)c3c4ccccc4n(C)c3c2=O)cc1`, the survival was inactive: 79%.

Turning to `COC(=O)c1c(NC(=O)COc2ccc(OC)cc2)sc2c1CCC(C)C2` (centres undefined), the survival is inactive: 86%.

On to `Cc1cc(C)cc(OCCSc2nc(-c3ccc(C(C)(C)C)cc3)nc3cc(=O)[nH]n23)c1`, for which the survival was inactive: 77%.

`O=S(=O)(c1ccc(-n2cnnn2)cc1)N(Cc1ccccn1)C1CC1`: the survival is inactive: 111%.

`CCCc1cc(=O)[nH]c2nnc(SCCC(C)C)n12`: the survival is inactive: 73%.

As to `COc1cc(NC(=O)CSc2ccc(-c3sc(-c4ccccc4)nc3C)nn2)cc(OC)c1`, the survival is inactive: 41%.

As to `COc1ccc(CN2CCN(S(=O)(=O)c3ccccc3)CC2)c(OC)c1`, the survival was inactive: 80%.

Regarding `CC(C)Oc1ccc(CNC(=O)C2CCCN(S(=O)(=O)c3ccc4c(ccn4C)c3)C2)cc1` (centres undefined), the survival is inactive: 128%.

In the case of `CCCn1cc(S(=O)(=O)c2ccc(OC)cc2)c(=O)c2cc(F)c(N3CCCCCC3)cc21`, the survival is inactive: 59%.

Regarding `CCn1cc(S(=O)(=O)c2ccc(C)cc2C)c(=O)c2cc(F)c(N3CCCC3)cc21`, the survival was inactive: 82%.

Take `Cc1ccc(CSc2nnc3[nH]c(=O)cc(C)n23)cc1`: the survival was inactive: 83%.

Turning to `CCC(=O)N1c2ccccc2CC1C(=O)NCCc1ccc(OC)cc1OC` (centres undefined), the survival is inactive: 66%.

Take `CCCN1C(=O)C2(c3ccccc31)c1c(oc3cc(C)c(C)cc3c1=O)C(=O)N2CCCOC` (centres undefined): the survival was inactive: 83%.

Take `Nc1nc2n(n1)C(c1cccs1)CC(c1ccc(Cl)cc1Cl)N2` (centres undefined): the survival was inactive: 106%.

Turning to `COc1ccc(CC(=O)NC2CCN(CC(=O)Nc3ccc4c(c3)CCC4)CC2)cc1OC`, the survival is inactive: 116%.

Regarding `COc1cccc(CNC(=O)CCc2c(C)nn(-c3ccc(N4CCOCC4)nn3)c2C)c1`, the survival is inactive: 143%.

For the molecule `COc1ccc(S(=O)(=O)N(C)CC(=O)N2CCCC2)cc1`, the survival is inactive: 101%.

Consider `O=C(CC1C(=O)N(c2ccccc2)C(=O)N1CCc1cccs1)Nc1ccc(Cl)cc1` (centres undefined), for which the survival is inactive: 69%.

As for `Cc1c(C(=O)Nc2cccc(C(F)(F)F)c2)oc2ccc(S(=O)(=O)N(C)C3CCCCC3)cc12`, the survival was inactive: 80%.

Take `Cc1nnc(SCC(=O)O)o1`: the survival was inactive: 118%.

With `CCNC(=O)c1ccc(-n2c(-c3ccccc3)cc3c2CCCCC3)cc1`, the survival was inactive: 84%.

For `COc1ccc(OC)c(NC(=O)[C@H](Cc2ccccc2)N2Cc3ccccc3C2=O)c1`, the survival is inactive: 127%.

Regarding `CC(=O)Nc1nonc1-c1nnc(SCc2ccc(C)cc2)n1C`, the survival was inactive: 83%.

In the case of `CCOC(=O)CNc1ncnc2c1nnn2C`, the survival was inactive: 22%.

For `CCCc1cc(=O)[nH]c2nnc(SCC(=O)Nc3cccc(C)c3)n12`, the survival was inactive: 99%.

Turning to `Cc1cccn2c(=O)c(/C=C(\C#N)c3nc4ccccc4n3C)c(Oc3ccc(Cl)cc3)nc12`, the survival is inactive: 56%.

For the molecule `CCCNC(=O)c1c2c(nc3ccccc13)C(=O)N(C1CCCCC1)C2`, the survival is inactive: 59%.

Consider `COc1cccc(-c2cc(C(=O)Nc3ccc(F)cc3)[nH]n2)c1`, for which the survival was inactive: 102%.

As for `O=C(NCC1CCCO1)Nc1ccccc1` (centres undefined), the survival is inactive: 105%.

On to `CC1CCN(S(=O)(=O)c2ccc(S(=O)(=O)NCc3ccccc3)cc2)CC1`, for which the survival was inactive: 104%.

On to `COc1ccc(OC)c(NC(=O)CCN2CCC(C)CC2)c1`, for which the survival was inactive: 111%.

In the case of `CC1C(=O)N2CCCc3cc(S(=O)(=O)Nc4ccc(Br)cc4F)cc1c32` (centres undefined), the survival is inactive: 72%.

For the molecule `CCOc1cc(-c2nnc(SCC(=O)NCc3ccc(C)cc3)nc2-c2ccc(OC)c(OCC)c2)ccc1OC`, the survival was inactive: 70%.

On to `COc1ccc(OC)c(NC(=O)c2nc(SCc3ccccc3F)ncc2Cl)c1`, for which the survival is inactive: 101%.

As to `COc1cccc(NC(=O)C2CCCN2S(=O)(=O)c2ccc3c(c2)n(C)c(=O)c(=O)n3C)c1` (centres undefined), the survival is inactive: 68%.

As to `CCc1cccc(-n2c(=O)c3cccnc3n2CC(=O)Nc2ccccc2C(=O)OC)c1`, the survival is inactive: 102%.

On to `CCOc1ccc(NC(=O)c2ccc3nc(Cc4ccccc4)oc3c2)cc1`, for which the survival is inactive: 101%.

As to `Cc1ccc2oc(C(=O)Nc3sc4c(c3C(=O)NCc3ccccc3)CCCC4)cc(=O)c2c1`, the survival is inactive: 83%.

On to `CCC1CN(C(=O)Nc2cc(OC)cc(OC)c2)c2ccccc2S1` (centres undefined), for which the survival is inactive: 113%.

For `COc1ccc(-n2nc3cc(C)c(NC(=O)c4ccc(C)cc4C)cc3n2)cc1Cl`, the survival was inactive: 69%.

As to `Cc1ccccc1NC(=O)N1CCC(CN2CCCC2)CC1`, the survival was inactive: 70%.

In the case of `Cc1ccc(OCC(=O)OCc2cc(=O)n3c(C)csc3n2)cc1`, the survival is inactive: 82%.

As for `CCC(=O)N1CCc2cc(S(=O)(=O)NC(Cc3ccccc3)C(=O)NCc3ccc(F)cc3)ccc21` (centres undefined), the survival was inactive: 83%.

Take `N#CC1=C2SCN(C3CCCCC3)CN2C(=O)CC1c1ccc(F)cc1` (centres undefined): the survival was inactive: 87%.
